# In PubChem BioAssay AID493005 (National Center for Advancing Translational Sciences (NCATS), 2010):
# The whole screen tested about 340,000 compounds, of which fewer than 10 were called active. Inconclusive means that the source gave no clear call. Such entries were picked first, then a sample of the others. The call rests on the fitted dose curve; in most records, active means well fitted inhibition curve with a large enough effect in the main read-out, with a control signal flat (not every such curve was filed as active); inconclusive means small, poorly fitted or top-dose-only effect, or effect the other way, or a change in a side signal; inactive means no such curve, though single readings can be large or run the other way. A potency beside an inconclusive call is a rough fit, not a confirmed value. A note “side channel” means that the fit belongs to a control or component signal, not to the main read-out.
# Biological target: Tumor susceptibility gene 101 protein (Homo sapiens) (UniProt Q99816)
# Assay: qHTS Assay for Iinhibitors of HIV-1 Budding by Blocking the Interaction of PTAP/TSG101; on activity change, negative = inhibition: % of control where 0% means no effect
# Settings: Fluorescence polarization, FITC-PTAP peptide / Tsg101 binding; activity change, negative = inhibition: at 115 µM (top of the series)
# In short: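 FP read-out: FITC-PTAP peptide, 50 nM final, binding Tsg101 binding domain, 10 uM final; 20 min, r.t.; 10 mM HEPES pH 7.5, 0.15 M NaCl, 0.01% Tween 20, 3 mM EDTA, 0.1 mM TCEP.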
# Potency means the concentration at half of the fitted maximal effect; tags describe the fitted curve by direction and shape or compound fluorescence and quenching.
# Chain of UniProt Q99816 (Q99816 whole entry, looked up): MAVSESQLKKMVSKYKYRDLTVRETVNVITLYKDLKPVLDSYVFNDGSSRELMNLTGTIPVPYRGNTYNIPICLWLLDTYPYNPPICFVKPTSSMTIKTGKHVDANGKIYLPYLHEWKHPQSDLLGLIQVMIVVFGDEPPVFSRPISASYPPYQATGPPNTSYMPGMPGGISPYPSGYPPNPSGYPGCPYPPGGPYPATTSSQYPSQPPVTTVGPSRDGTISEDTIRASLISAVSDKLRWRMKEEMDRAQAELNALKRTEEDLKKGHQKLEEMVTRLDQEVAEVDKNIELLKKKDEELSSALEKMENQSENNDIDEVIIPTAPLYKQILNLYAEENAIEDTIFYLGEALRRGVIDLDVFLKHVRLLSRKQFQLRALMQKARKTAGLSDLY
SMILES,Potency,"activity change, negative = inhibition"
COc1ccc(-n2c(O)c(/C=N/NS(=O)(=O)c3ccc(C)c([N+](=O)[O-])c3)c3ccccc3c2=O)cc1OC,"inconclusive: 39.8 µM [fluorescent, side channel, partial curve, poor fit]",–
N#C/C(=C\C=C\c1ccccc1)c1nc(-c2ccc(Cl)cc2)cs1,"inconclusive: 79.4 µM [fluorescent, side channel, partial curve, poor fit]",–
O=c1oc(CCO)cc2ccc(C#Cc3ccsc3)cc12,–,inactive: 1.87%
Cc1ccc2oc(=O)c(/C=C(\O)c3ccccc3)nc2c1,"inconclusive: 79.4 µM [fluorescent, side channel, partial curve]",–
COc1ccc(OC)c(/C=C2/Sc3ccccc3C2=O)c1,"inconclusive: 39.8 µM [fluorescent, side channel, partial curve, poor fit]",–
Cc1ccc(Cl)cc1N1CCN(S(=O)(=O)c2ccc3[nH]c(=O)ccc3c2)CC1,–,inactive: -10.4%
CCN(c1ccc(N=Cc2c(O)n(Cc3ccc(OC)cc3)c(=O)c3ccccc23)cc1)C(C)C,"inconclusive: 56.2 µM [fluorescent, side channel, partial curve, poor fit]",–
O=C1c2cccc3c(N4CCCCC4)ccc(c23)C(=O)N1c1cccc(O)c1,"inconclusive: 56.2 µM [fluorescent, side channel, partial curve, poor fit]",–
COc1ccc(-c2ccc3c(=O)cc(-c4ccsc4)oc3c2)cn1,"inconclusive: 56.2 µM [fluorescent, side channel, partial curve, poor fit]",–
O=C(C1=NN(c2ccccc2)C2C(=O)N(c3cccc(Cl)c3)C(=O)C12)c1ccccc1 (stereo not drawn),"inconclusive: 79.4 µM [fluorescent, side channel, partial curve, poor fit]",–
COc1cccc2c1C(=O)c1c(O)c3c(c(O)c1C2=O)C[C@@](O)(C(C)=O)C[C@@H]3O[C@H]1C[C@H](N)[C@H](O)[C@H](C)O1,"inconclusive: 50.1 µM [fluorescent, side channel, partial curve, poor fit]",–
CCOc1cccc(C(=O)N/N=C/c2coc3ccccc3c2=O)c1,–,inactive: 0.756%
CN(C)c1ccc(/C=C(\C#N)C(=O)c2ccccc2)cc1,"inconclusive: 79.4 µM [fluorescent, side channel, partial curve, poor fit]",–
C=CCOn1c(=O)c(-c2cc3ccccc3o2)[n+]([O-])c2ccccc21,"inconclusive: 50.1 µM [fluorescent, partial curve, poor fit]",–
O=Nc1nc2ncccn2c1-c1ccccc1,–,inactive: 0.429%
Cc1sc2ncnc(N3CCC(C(=O)NNC(=O)COc4ccccc4F)CC3)c2c1C,–,inactive: 0.656%
COC(=O)/C=C1/SC(=Nc2ccc(Cl)c(Cl)c2)NC1=O,–,inactive: -2.48%
CNC(=O)/C(C#N)=C/c1ccc(-c2ccc(Cl)cc2)o1,"inconclusive: 79.4 µM [fluorescent, side channel, partial curve, poor fit]",–
COc1cc(CNC(=O)C2CC2)ccc1OCc1ccccc1,–,inactive: -5.75%
NC(=O)C1CCN(c2nc(-c3cccc(N)c3)cs2)CC1,"inconclusive: 89.1 µM [quencher, side channel, partial curve, poor fit]",–

SMILES,Potency,"activity change, negative = inhibition"
CCc1cccc2cc3c(N)c(C(=O)Nc4ccc(S(=O)(=O)N5CCCC5)cc4)sc3nc12,"inconclusive: 56.2 µM [fluorescent, side channel, partial curve, poor fit]",–
CCN(CC)C(=O)CSc1nnc2nnc3cc(Cl)ccc3n12,"inconclusive: 63.1 µM [fluorescent, side channel, partial curve, poor fit]",–
O=C1c2cccc3c(N4CCCCC4)ccc(c23)C(=O)N1c1ccccc1O,"inconclusive: 50.1 µM [fluorescent, side channel, partial curve, poor fit]",–
CC(C)CC1C(C#N)=C(N)SC(N)=C1C#N,"inconclusive: 35.5 µM [fluorescent, side channel, partial curve]",–
O=C(NC(=O)N1CCN(c2cccc(Cl)c2)CC1)c1ccccc1,–,inactive: -1.53%
CCNC(=S)N/N=C/c1sc(N2CCCCC2)nc1-c1cccs1,"inconclusive: 79.4 µM [fluorescent, side channel, partial curve]",–
Cc1nc2c(=O)[nH]c(=S)[nH]c2[nH]c1=O,–,inactive: -8.77%
COc1cccc(-c2nn(C)c3sc(C(=O)NCc4ccccn4)cc23)c1,–,inactive: -0.517%
CN(C)c1ccc(N=Cc2nc(-c3ccccc3)oc2OC(=O)c2ccccc2)cc1,"inconclusive: 50.1 µM [fluorescent, side channel, partial curve, poor fit]",–
CCCNC(=O)Cn1c(=O)/c(=C\c2ccc(-c3cccc([N+](=O)[O-])c3)o2)s/c1=C\C(=O)C(C)(C)C,"inconclusive: 50.1 µM [fluorescent, side channel, partial curve, poor fit]",–
CC(C)(C)c1cc[n+](-c2[nH]c(=O)sc2/C=N/NC([S-])=Nc2ccccc2)cc1,"inconclusive: 56.2 µM [fluorescent, side channel, partial curve, poor fit]",–
N#C/C(=C/c1ccc(-c2ccccc2)o1)c1nc(-c2cccs2)cs1,"inconclusive: 39.8 µM [fluorescent, side channel, partial curve]",–
CCOC(=O)c1c(NC(=O)CN2C(=O)NC3(CCCCC3C)C2=O)sc(C)c1CC (stereo not drawn),–,inactive: -4.34%
COc1ccc(C2CC(c3cccs3)=NN2c2ccc(C=O)cc2)cc1 (stereo not drawn),"inconclusive: 56.2 µM [fluorescent, side channel, partial curve, poor fit]",–
N#C/C(=C/c1ccc(-c2ccc(S(N)(=O)=O)cc2)o1)c1nc2ccccc2s1,"inconclusive: 56.2 µM [fluorescent, side channel, partial curve, poor fit]",–
C1=C(c2ccc(-c3ccccc3)cc2)Nc2ncnn2C1c1ccco1 (stereo not drawn),"inconclusive: 56.2 µM [fluorescent, partial curve, poor fit]",–
COc1ccccc1N1C(=O)c2cccc3c(N(C)CCO)ccc(c23)C1=O,"inconclusive: 56.2 µM [fluorescent, side channel, partial curve, poor fit]",–
CC1(C)Cc2ccccc2C(N/N=C/c2ccc(Cl)cc2)=N1,–,inactive: -4.42%
NC(N)=NS(=O)(=O)c1ccc(N)cc1,–,inactive: 2.04%
O=S(=O)(O)c1cc(O)c2c(O)c(N=Nc3cc(Cl)ccc3O)c(S(=O)(=O)O)cc2c1,"inconclusive: 56.2 µM [quencher, side channel, partial curve, poor fit]",–

SMILES,Potency,"activity change, negative = inhibition"
O=[n+]1c2c(n([O-])c3cc(F)c(N4CCCC4)cc31)CCC2,"inconclusive: 56.2 µM [fluorescent, side channel, partial curve, poor fit]",–
CCn1c(/C=C/c2ccc([N+](=O)[O-])o2)nc2ccccc2c1=O,"inconclusive: 56.2 µM [fluorescent, side channel, partial curve, poor fit]",–
c1ccc(Nc2ccccn2)cc1,–,inactive: -1.29%
CC(C)c1ccc(N2C(=O)/C(=C/N(C)C)SC2=S)cc1,"inconclusive: 14.1 µM [fluorescent, side channel, full curve]",–
CN(C)c1ccc(/C=C/C(=O)c2ccc(O)cc2)cc1,"inconclusive: 50.1 µM [fluorescent, side channel, partial curve, poor fit]",–
CCN1CCN(Cc2ccc(NC(=O)Nc3ccccc3OC)cc2)CC1,"inconclusive: 44.7 µM [falling, partial curve]",–
c1ccc2[nH]c3cc4ncnc4cc3nc2c1,"inconclusive: 56.2 µM [fluorescent, side channel, partial curve, poor fit]",–
O=c1c2ccccc2nnn1CSc1ccc2ccccc2n1,–,inactive: -2.12%
CCN(CC)c1ccc(/C=c2\sc3nnc(-c4ccccc4Cl)n3c2=O)cc1,"inconclusive: 10 µM [fluorescent, side channel, partial curve, poor fit]",–
Cc1ccc(-c2nnc(NC3CCCCC3)c3ccccc23)cc1S(=O)(=O)N1CCN(C)CC1,–,inactive: -0.158%
C=CCN1C(=O)/C(=C2/Sc3ccc(OC)cc3N2C)SC1=NCc1ccccc1,–,inactive: -0.454%
O=C(NCC(c1cccs1)N1CCOCC1)c1cc(S(=O)(=O)N2CCOCC2)ccc1F (stereo not drawn),–,inactive: -1.93%
Cn1c(=O)c(Nc2ccc(Cl)cc2)c2c3c(cccc31)C(=O)c1ccccc1-2,"inconclusive: 56.2 µM [fluorescent, side channel, partial curve, poor fit]",–
CC(=O)OCC1=C(C(=O)O)N2C(=O)C(NC(=O)COc3ccc(F)cc3)C2SC1 (stereo not drawn),–,inactive: -8.84%
CN(C)c1ccc(/C=C(/C#N)C(=O)Nc2nc3c(s2)CCN(Cc2ccccc2)C3)cc1,"inconclusive: 56.2 µM [fluorescent, side channel, partial curve, poor fit]",–
COC(=O)c1cc(C(=O)c2ccc(Cl)cc2)n2c(=O)/c(=C\N(C)C)sc12,"inconclusive: 79.4 µM [fluorescent, side channel, partial curve, poor fit]",–
N#C/C(=C\c1coc2ccc(O)cc2c1=O)C(=O)Nc1nc2ccccc2s1,"inconclusive: 2.82 µM [fluorescent, side channel, full curve, poor fit]",–
CN(C)c1ccc(/C=C2\SC(=O)N(CC(O)Cn3c4ccccc4c4ccccc43)C2=O)cc1 (stereo not drawn),"inconclusive: 56.2 µM [fluorescent, side channel, partial curve, poor fit]",–
